The other results are listed elsewhere or left out.
Legend:
Assay in all cases: glycan array binding signal (z-score within array); higher = stronger binding
Conditions in all cases: glycan notation: IUPAC condensed, linker removed
[1] = biological target: Gal(b1-4)GlcNAc(b1-6)GalNAc
How it was run: (§1)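 The binding signal is a Z-score computed within each array and averaged over linkers. Arrays of the same protein sequence at different concentrations or buffers were also averaged together. Data originate from 3228 arrays in the Consortium for Functional Glycomics database, kept only where the protein sequence was available.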

[2] = biological target: Gal(b1-4)GlcNAc(b1-6)[Gal(b1-3)]GalNAc
How it was run: as §1

[3] = biological target: Gal(b1-4)GlcNAc(b1-6)[Gal(b1-4)GlcNAc(b1-3)]GalNAc
How it was run: as §1

[4] = biological target: Gal(b1-4)GlcNAc6P
How it was run: as §1

[5] = biological target: Gal(b1-6)Gal
How it was run: as §1

[6] = biological target: Gal3S(b1-3)GalNAc
How it was run: as §1

[7] = biological target: Gal3S(b1-3)GlcNAc
How it was run: as §1

[8] = biological target: Gal3S(b1-3)[Fuc(a1-4)]GlcNAc
How it was run: as §1

[9] = biological target: Gal3S(b1-4)Glc
How it was run: as §1

[10] = biological target: Gal3S(b1-4)Glc6S
How it was run: as §1

[11] = biological target: Gal3S(b1-4)GlcNAc
How it was run: as §1

[12] = biological target: Gal3S(b1-4)[Fuc(a1-3)]Glc6S
How it was run: as §1

[13] = biological target: Gal3S(b1-4)[Fuc(a1-3)]GlcNAc
How it was run: as §1

[14] = biological target: Gal3S(b1-4)[Fuc(a1-3)]GlcNAc6S
How it was run: as §1

[15] = biological target: Gal3S4S(b1-4)GlcNAc
How it was run: as §1

[16] = biological target: Gal3S6S(b1-4)GlcNAc
How it was run: as §1

[17] = biological target: Gal3S6S(b1-4)GlcNAc6S
How it was run: as §1

[18] = biological target: Gal4S(b1-4)GlcNAc
How it was run: as §1

[19] = biological target: Gal4S6S(b1-4)GlcNAc
How it was run: as §1

[20] = biological target: Gal6P(b1-4)GlcNAc
How it was run: as §1

[21] = biological target: Gal6S(b1-3)GlcNAc
How it was run: as §1

[22] = biological target: Gal6S(b1-3)GlcNAc6S
How it was run: as §1

[23] = biological target: Gal6S(b1-4)Glc
How it was run: as §1

[24] = biological target: Gal6S(b1-4)Glc6S
How it was run: as §1

[25] = biological target: Gal6S(b1-4)GlcNAc
How it was run: as §1

[26] = biological target: Gal6S(b1-4)GlcNAc6S
How it was run: as §1

[27] = biological target: GalNAc(a1-3)Gal
How it was run: as §1

[28] = biological target: GalNAc(a1-3)GalNAc
How it was run: as §1

[29] = biological target: GalNAc(a1-3)GalNAc(a1-3)Gal(a1-4)Gal(b1-4)GlcNAc
How it was run: as §1

[30] = biological target: GalNAc(a1-3)GalNAc(b1-3)Gal(a1-4)Gal(b1-4)Glc
How it was run: as §1

[31] = biological target: GalNAc(b1-3)Gal
How it was run: as §1

[32] = biological target: GalNAc(b1-3)Gal(a1-4)Gal(b1-4)GlcNAc
How it was run: as §1

[33] = biological target: GalNAc(b1-3)Gal(a1-4)Gal(b1-4)GlcNAc(b1-3)Gal(b1-4)Glc
How it was run: as §1

[34] = biological target: GalNAc(b1-3)Gal(a1-6)Gal(b1-4)Glc
How it was run: as §1

[35] = biological target: GalNAc(b1-3)GalNAc
How it was run: as §1

[36] = biological target: GalNAc(b1-3)GlcNAc
How it was run: as §1

[37] = biological target: GalNAc(b1-4)Gal(b1-4)Glc
How it was run: as §1

[38] = biological target: GalNAc(b1-4)GlcNAc
How it was run: as §1

B1: FliC (Pseudomonas aeruginosa), P72151 (protein)
chain: MALTVNTNIASLNTQRNLNASSNDLNTSLQRLTTGYRINSAKDDAAGLQISNRLSNQISGLNVATRNANDGISLAQTAEGALQQSTNILQRIRDLALQSANGSNSDADRAALQKEVAAQQAELTRISDTTTFGGRKLLDGSFGTTSFQVGSNAYETIDISLQNASASAIGSYQVGSNGAGTVASVAGTATASGIASGTVNLVGGGQVKNIAIAAGDSAKAIAEKMDGAIPNLSARARTVFTADVSGVTGGSLNFDVTVGSNTVSLAGVTSTQDLADQLNSNSSKLGITASINDKGVLTITSATGENVKFGAQTGTATAGQVAVKVQGSDGKFEAAAKNVVAAGTAATTTIVTGYVQLNSPTAYSVSGTGTQASQVFGNASAAQKSSVASVDISTADGAQNAIAVVDNALAAIDAQRADLGAVQNRFKNTIDNLTNISENATNARSRIKDTDFAAETAALSKNQVLQQAGTAILAQANQLPQAVLSLLR
[1]
  glycan array binding signal (z-score): -0.096
[2]
  glycan array binding signal (z-score): -0.192
[3]
  glycan array binding signal (z-score): -0.129
[4]
  glycan array binding signal (z-score): -0.18
[5]
  glycan array binding signal (z-score): -0.07
[6]
  glycan array binding signal (z-score): -0.09
[7]
  glycan array binding signal (z-score): -0.053
[8]
  glycan array binding signal (z-score): -0.104
[9]
  glycan array binding signal (z-score): -0.181
[10]
  glycan array binding signal (z-score): -0.111
[11]
  glycan array binding signal (z-score): -0.259
[12]
  glycan array binding signal (z-score): -0.023
[13]
  glycan array binding signal (z-score): -0.027
[14]
  glycan array binding signal (z-score): -0.056
[15]
  glycan array binding signal (z-score): -0.162
[16]
  glycan array binding signal (z-score): -0.145
[17]
  glycan array binding signal (z-score): -0.237
[18]
  glycan array binding signal (z-score): -0.116
[19]
  glycan array binding signal (z-score): -0.141
[20]
  glycan array binding signal (z-score): -0.243
[21]
  glycan array binding signal (z-score): -0.029
[22]
  glycan array binding signal (z-score): -0.193
[23]
  glycan array binding signal (z-score): -0.124
[24]
  glycan array binding signal (z-score): -0.158
[25]
  glycan array binding signal (z-score): -0.086
[26]
  glycan array binding signal (z-score): -0.194
[27]
  glycan array binding signal (z-score): -0.141
[28]
  glycan array binding signal (z-score): -0.15
[29]
  glycan array binding signal (z-score): -0.072
[30]
  glycan array binding signal (z-score): -0.183
[31]
  glycan array binding signal (z-score): -0.205
[32]
  glycan array binding signal (z-score): -0.16
[33]
  glycan array binding signal (z-score): -0.148
[34]
  glycan array binding signal (z-score): -0.167
[35]
  glycan array binding signal (z-score): -0.154
[36]
  glycan array binding signal (z-score): -0.196
[37]
  glycan array binding signal (z-score): -0.053
[38]
  glycan array binding signal (z-score): -0.058

Source: the supplement of paper PMC8728848
